Source: the supplement of paper PMC5919970
Where a name gives a salt, the structure may show the parent alone. The full ranking holds about 2,000 compounds; the median of “fractional viability relative to vehicle” is about 0.91, and the lowest 2% start at about 0.045. Some of the results follow.

Tested on: TYKNU
Experiment: fractional viability relative to vehicle; TYKNU is a high-grade serous ovarian cancer line; higher = less growth inhibition
Conditions: 72 h
In short: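 Drug treatment lasted 72 h, with cells grown at 37 °C in 5% CO2 in RPMI 1640 supplemented with 10% FBS. Beforehand, TYKNU control cells or their lentiCRISPRv2 knockout derivatives had been seeded at 500 cells per well into drug-stamped 384-well plates carrying a ~2100-compound library at 2 or 10 μM, in duplicate. Viability came from Cell Titer Glo luminescence, with averaged duplicate treatment wells normalised to duplicate control wells in the same plate position.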

[1] = 2uM, genotype: DNM1L knockout (sgDNM1L #1)
[2] = 2uM, genotype: sgCTRLA1 (non-targeting control)
[3] = 10uM, genotype: DNM1L knockout (sgDNM1L #1)
[4] = 10uM, genotype: sgCTRLA1 (non-targeting control)

SMILES	fractional viability [1]	fractional viability [2]	fractional viability [3]	fractional viability [4]
CN1[C@@H]2CC[C@H]1C[C@@H](OC(=O)C(CO)c1ccccc1)C2 (stereo partly specified) [Atropine sulfate monohydrate]	1.01	0.93	0.897	1.01
CCOc1ccccc1-n1c(C(C)N2CCN(C(=O)COc3ccc(Cl)cc3)CC2)nc2ccccc2c1=O (stereo unspecified) [Erastin]	0.123	0.0716	0.0411	0.0416
CNCC(O)c1ccc(O)cc1 (stereo unspecified) [Synephrine]	0.813	0.984	0.676	0.905
CNCC(O)c1ccc(O)cc1 (stereo unspecified) [Synephrine HCl]	0.901	1.07	0.806	1
N#C[C@H](O[C@@H]1O[C@H](C(=O)O)[C@@H](O)[C@H](O)[C@H]1O)c1ccccc1 [Laetrile]	0.984	1.23	0.709	1.16
C[C@]12CCC(=O)C(O)=C1CC[C@@H]1[C@@H]2CC[C@]2(C)C(=O)CC[C@@H]12 [Formestane]	0.962	1.12	0.81	1.15
COc1ccc(C(CN(C)C)C2(O)CCCCC2)cc1 (stereo unspecified) [Venlafaxine]	0.97	1.13	0.85	1.16
Cc1sc2c(c1C)C(c1ccc(Cl)cc1)=N[C@@H](CC(=O)Nc1ccc(O)cc1)c1nnc(C)n1-2	0.385	0.445	0.375	0.31
CCc1c(C(=O)C(N)=O)c2c(OCC(=O)O)cccc2n1Cc1ccccc1	1.09	1.02	0.94	0.973
Cc1cc2c(C(C)C)c(O)c(O)c(C=O)c2c(O)c1-c1c(C)cc2c(C(C)C)c(O)c(O)c(C=O)c2c1O [Gossypol]	0.9	1.04	0.253	0.247
CC(C)NCC(O)c1ccccc1Cl (stereo unspecified) [Clorprenaline HCl]	0.688	0.822	0.635	0.784
C[C@@H]1[C@H](O)[C@@H](C)/C=C/C=C/CC/C=C/C=C/C=C/C=C/[C@H](O[C@H]2O[C@@H](C)[C@H](O)[C@@H](N)[C@H]2O)C[C@@H]2O[C@](O)(C[C@@H](O)[C@H](O)CC[C@@H](O)C[C@@H](O)C[C@@H](O)CC(=O)O[C@H]1C)C[C@H](O)[C@H]2C(=O)O [Nystatin (Fungicidin)]	0.929	1.11	0.854	1.03
CN(C)C(=O)Oc1ccc[n+](C)c1 [Pyridostigmine Bromide]	1	1.11	1.06	1.08
CN1CCN(c2nc3ccccc3nc2Cl)CC1	0.991	1.07	0.842	0.931
CCN(CC)C(=O)c1ccc(C2=CC3(CCNCC3)Oc3cccc(O)c32)cc1	1.05	1.03	0.914	0.931
O=c1[nH]c2ccc(Cl)cc2c(N[C@@H]2CN3CCC2CC3)c1-c1nc2ccccc2[nH]1	0.154	0.195	0.0777	0.0446
CCc1cc2c(s1)-n1c(C)nnc1CN=C2c1ccccc1Cl [Etizolam]	0.778	1	0.707	0.96
Cc1sc2c(c1C)C(c1ccc(Cl)cc1)=N[C@@H](CC(=O)OC(C)(C)C)c1nnc(C)n1-2	0.37	0.516	0.278	0.394
Cn1c(COP(=O)(NCCBr)NCCBr)cnc1[N+](=O)[O-]	1.47	1.27	0.89	1.27
CCC1(C)CC(=O)NC(=O)C1 [Bemegride]	0.954	1.13	0.798	0.959

SMILES	fractional viability [1]	fractional viability [2]	fractional viability [3]	fractional viability [4]
CCN(Cc1ccc(Cl)nc1)/C(=C/[N+](=O)[O-])NC [Nitenpyram]	0.733	1.08	0.638	0.862
Cc1ccccc1-n1c(Cn2ncc3c(N)ncnc32)nc2cccc(C)c2c1=O	0.87	1.14	0.731	1.15
C/C(O)=C(\C#N)C(=O)Nc1cc(Br)ccc1Br	0.782	0.916	0.721	0.699
OC(c1ccccc1)(c1ccccc1)C1CCNCC1 [Azacyclonol]	1.08	1.1	0.675	1.09
COc1cc(OC)c(OC)cc1C=O [Asaraldehyde]	1.04	1.26	0.869	1.22
C=C1C[C@@H]2[C@H](CC[C@]3(C)C(=O)CC[C@@H]23)[C@@]2(C)C=CC(=O)C=C12 [Exemestane]	1.03	1.05	0.729	0.967
C[C@H]1CNCCc2ccc(Cl)cc21 [Lorcaserin HCl]	1.12	1.15	0.714	1.04
CCCCCCCCCCCCCCCC[n+]1ccccc1 [Cetylpyridinium Chloride]	0.216	0.196	0.0152	0.0105
CCCN1CCO[C@@H]2c3cc(O)ccc3OC[C@H]21	1.06	1.06	1.07	1.1
Cc1ccc(-n2nccn2)c(C(=O)N2CCN(c3nc4cc(Cl)ccc4o3)CC[C@H]2C)c1 [Suvorexant (MK-4305)]	0.969	1.14	0.861	1.04
CN1C(=O)CCS(=O)(=O)C1c1ccc(Cl)cc1 (stereo unspecified) [Chlormezanone]	1.21	0.939	0.952	0.831
COc1cc(C)[nH]c(=O)c1CNC(=O)c1c(C)n([C@H](C)C2CCOCC2)c2ccccc12	0.85	0.972	0.755	0.698
O=P1(N(CCCl)CCCl)NCCCO1 (stereo unspecified) [Cyclophosphamide Monohydrate]	1.02	1.17	0.845	0.956
c1ccc2c(c1)sc1ccccc12 [Dibenzothiophene]	0.939	1.1	0.765	1.03
C[C@]12CC[C@H](O)CC1=CC[C@@H]1[C@@H]2CC[C@]2(C)C(=O)CC[C@@H]12 [Dehydroepiandrosterone (DHEA)]	0.916	1.14	0.747	0.993
COc1ccc(CC2NCCc3cc(OC)c(OC)cc32)cc1OC (stereo unspecified) [Tetrahydropapaverine HCl]	0.891	1.06	0.955	1.01
c1ccc([C@@H]2C[C@H]2NC2CCNCC2)cc1	0.728	0.964	0.712	0.824
CC[C@H](C)[C@@H]([C@@H](CC(=O)N1CCC[C@H]1[C@H](OC)[C@@H](C)C(=O)N[C@H](C)[C@@H](O)c1ccccc1)OC)N(C)C(=O)[C@@H](NC(=O)[C@@H](NC)C(C)C)C(C)C [Monomethyl auristatin E (MMAE)]	0.0977	0.0889	0.0769	0.0612
O=[N+]([O-])c1ncc[nH]1 [Azomycin]	0.753	1.09	0.757	0.975
CC(C)OC(=O)[C@H](C)N[P@](=O)(CO[C@H](C)Cn1cnc2c(N)ncnc21)Oc1ccccc1 [Tenofovir Alafenamide (GS-7340)]	0.811	0.941	0.828	0.76

SMILES	fractional viability [1]	fractional viability [2]	fractional viability [3]	fractional viability [4]
O=c1cccc2n1C[C@@H]1CNC[C@H]2C1 [Cytisine]	1.07	1.04	1.02	0.97
CCOC(=O)c1cncn1[C@H](C)c1ccccc1 [Etomidate]	1.06	1.16	0.909	1.31
CC(O)(CS(=O)(=O)c1ccc(F)cc1)C(=O)Nc1ccc(C#N)c(C(F)(F)F)c1 (stereo unspecified) [Bicalutamide]	1.02	1.17	0.893	1.08
CCN1CCN(C(=O)Cc2ccc(Nc3ncc(F)c(Nc4ccc(C(=O)Nc5ccccc5Cl)cc4)n3)cc2)CC1 [Aurora A Inhibitor I]	0.904	0.926	0.0479	0.0775
CC(C)(C)c1cc(C=C(C#N)C#N)cc(C(C)(C)C)c1O [Tyrphostin 9]	0.406	0.379	0.129	0.128
O=C(O)c1nn(Cc2ccc(Cl)cc2Cl)c2ccccc12 [Lonidamine]	0.961	1.06	0.87	1.16
Cc1cc(C(C#N)c2ccc(Cl)cc2)c(Cl)cc1NC(=O)c1cc(I)cc(I)c1O (stereo unspecified) [Closantel]	1.13	1.17	0.948	1.1
Cc1cc(C(C#N)c2ccc(Cl)cc2)c(Cl)cc1NC(=O)c1cc(I)cc(I)c1O (stereo unspecified) [Closantel Sodium]	0.98	1.19	0.879	0.97
O=C1CC[C@@]2(O)[C@H]3Cc4ccc(O)c5c4[C@@]2(CCN3CC2CC2)[C@H]1O5 [Naltrexone HCl]	1.02	1.04	0.79	1.02
Cn1c(CCCC(=O)O)nc2cc(N(CCCl)CCCl)ccc21 [Bendamustine HCl]	1.04	1.09	0.902	1.02
CC(NC(C)(C)C)C(=O)c1cccc(Cl)c1 (stereo unspecified) [Amfebutamone HCl]	1.06	1.06	0.953	0.919
CC(C)(C)c1cc(C=C(C#N)C#N)cc(Br)c1O	1.21	1.08	1.09	0.939
CC(C)[C@]12O[C@H]1[C@@H]1O[C@]13[C@]1(O[C@H]1C[C@H]1C4=C(CC[C@@]13C)C(=O)OC4)[C@@H]2O [Triptolide (PG490)]	0.337	0.253	0.286	0.237
CN(C)CCc1ccc(O)cc1 [Hordenine]	0.84	1.21	0.83	1.16
COC1=C[C@@H]2[C@@H]3Cc4ccc(OC)c(O)c4[C@]2(CCN3C)CC1=O [Sinomenine]	0.947	1.26	0.824	1.2
COc1ccc(N(C(=O)Oc2c(C)cccc2C)c2ccnc(Nc3ccc(N4CCN(C)CC4)cc3)n2)c(OC)c1	0.822	0.958	0.662	0.666
C/C(=C\c1csc(C)n1)[C@@H]1C[C@@H]2O[C@@H]2CCC[C@H](C)[C@H](O)[C@@H](C)C(=O)C(C)(C)[C@@H](O)CC(=O)O1 [Epothilone A]	0.211	0.264	0.235	0.323
CN1[C@@H]2C[C@@H](OC(=O)[C@H](CO)c3ccccc3)C[C@H]1[C@@H]1O[C@@H]12 [Scopolamine HBr]	0.974	1.22	1.02	1.16
[O-][n+]1ccccc1[S-].[O-][n+]1ccccc1[S-].[Zn+2] [Zinc Pyrithione]	0.0424	0.0207	0.0251	0.0128
